# From PubChem BioAssay (NCATS)
# “And” between values parts separate entries of the source, which are not always exact repeats. Equal entries are not always repeated. This list was built around the results that the source calls inconclusive (neither active nor inactive); the mix of calls is not that of the screen. Potencies of inconclusive entries are doubtful fits and often do not repeat. The source made the active and inactive calls. Calls come from the whole dose curve; as a rule, active = well fitted cell-killing curve with a large enough effect; inconclusive = small, poorly fitted or top-dose-only effect; inactive = flat fitted curve, though single readings scatter.
# Experiment: qHTS of pediatric cancer cell lines to identify multiple opportunities for drug repurposing: Primary screen for BT-12 cells (AID 1347101); note: nearly all actives have a fitted effect of over 25% in size;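 for activity change, negative = cytotoxic: plate controls were DMSO for no effect and bortezomib positive control for full effect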
# Settings: BT-12 viability, CellTiter-Glo luminescence, 48 h; series mostly up to 57.3 µM; activity change, negative = cytotoxic: at the top concentration
# Method in brief: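 Cells (500-1,000/well) rested 5 h, then received compounds for 48 h; metabolically active cells were measured by CellTiter-Glo luminescence. Final concentrations spanned up to 46 µM (MIPE, 11-point) or 0.59 nM-46 µM (NPC, 8-point) in primary screens, 11-point in follow-ups.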
# Potency is the fitted concentration of half-maximal effect; tags give direction and shape of the fitted curve.
SMILES,"activity change, negative = cytotoxic",Potency
CCOC(=O)O[C@]1(C(=O)OCCl)CC[C@@H]2[C@H]3CCC4=CC(=O)C=C[C@]4(C)[C@@H]3[C@@H](O)C[C@@]21C,inactive: 16.2%,
O=C(NC1CCOCC1)c1ccc(-c2cc(-c3cn[nH]c3-c3ccccn3)ccn2)cc1,inactive: -3.51%,
Cc1coc2c1C(=O)C(=O)c1c-2ccc2c1CCCC2(C)C,,active: 21.7 µM
CC(C)NCC(O)c1ccc(NS(C)(=O)=O)cc1 (centres undefined),inactive: 8.16%,
CC1CC2C3CCC4=CC(=O)C=C[C@]4(C)[C@@]3(F)[C@@H](O)C[C@]2(C)[C@@]1(O)C(=O)CO (some centres undefined),,"inconclusive: 43.2 µM [cytotoxic, single point]"
CCCCC(C)(C)[C@H](O)C=C[C@H]1[C@H](O)CC(=O)[C@H]1CC=CCCCC(=O)O,,"inconclusive: 27.3 µM [cytotoxic, single point]"
O=C(O)c1cc(=O)[nH]c(=O)[nH]1,,"inconclusive: 27.3 µM [cytotoxic, partial curve, poor fit]"
CC[C@H](NC(C)C)[C@H](O)c1ccc(O)c2[nH]c(=O)ccc12,,inactive
C=CC[N+]1([C@H]2C[C@H]3[C@@H]4CC[C@H]5C[C@H](O)[C@@H](N6CCOCC6)C[C@]5(C)[C@@H]4CC[C@]3(C)[C@H]2OC(C)=O)CCCC1,,"inconclusive: 38.5 µM [cytotoxic, single point]"
Cc1nc2c([nH]1)CCN(C(=O)c1ccc(NC(=O)c3ccccc3-c3ccccc3)cc1)c1ccccc1-2,,"inconclusive: 30.6 µM [cytotoxic, single point]"
CCN1C[C@H](C)n2c(c(O)c3c(=O)n(Cc4ccc(F)c(Cl)c4)nc(C(=O)NC)c32)C1=O,inactive: -6.16%,
CC(=O)OCC(=O)[C@@]1(O)CC[C@H]2[C@@H]3CCC4=CC(=O)C=C[C@]4(C)[C@@H]3[C@@H](O)C[C@@]21C,,"inconclusive: 0.685 µM [cytotoxic, partial curve, poor fit]"
NC(=O)c1ccc2nc(-c3ccc(Oc4ccc(Cl)cc4)cc3)[nH]c2c1,,active: 2.43 µM
CCC=CC[C@H]1C(=O)CC[C@@H]1CC(=O)OC,inactive: 6.39%,
CC[C@@]1(O)C(=O)OCc2c1cc1n(c2=O)Cc2cc3cc(O)ccc3nc2-1,,active: 0.385 µM
O=C(O)C=Cc1ccc(Cn2ccnc2)cc1,inactive: -1.9%,
CC1(C)O[C@H]2C[C@@H]3[C@H]4CCC5=CC(=O)C=C[C@]5(C)[C@@]4(F)[C@@H](O)C[C@]3(C)[C@]2(C(=O)CO)O1,,"inconclusive: 21.7 µM [cytotoxic, partial curve, poor fit]"
O=C(O)CCn1c2c(c3ccccc31)C[C@H](NS(=O)(=O)c1ccc(F)cc1)CC2,,inactive
COc1cc(C(C)=O)ccc1OCCCN1CCC(c2noc3cc(F)ccc23)CC1,,"inconclusive: 27.3 µM [cytotoxic, single point] and inconclusive: 17.4 µM [cytotoxic, partial curve]"
